# Results as given in PubChem BioAssay AID624296 (National Center for Advancing Translational Sciences (NCATS), 2012).
# Out of some 350,000 compounds screened, about 9,900 (2.8%) were called active. The shares of active, inactive and inconclusive entries below differ from those in the screen. The call rests on the fitted dose curve; in most records, active means well fitted activation curve with a large enough effect; inconclusive means small, poorly fitted or top-dose-only effect; inactive means no such curve, though single readings can be large or run the other way. No potency is given beside an inconclusive call; the fits are too rough.
# Assay: A quantitative high throughput screen for small molecules that induce DNA re-replication in MCF 10a normal breast cells. Further: nearly all actives have a fitted effect of over 50% in size.
# Conditions: MCF 10A DNA re-replication, Hoechst nuclear intensity, 48 h; series mostly up to 46.1 µM
# Potency means the concentration at half of the fitted maximal effect; tags describe the fitted curve by direction and shape.
row,SMILES,Potency
1,COC(CNC(=O)c1ccc2c(c1)ncn2C1CCCCCC1)OC,inactive
2,O=C(c1nn(Cc2ccccc2)c(=O)c2ccccc12)N1CCN(c2ccccn2)CC1,"inconclusive [activator, single point]"
3,CC1CCN(C(=O)c2ccc([N+](=O)[O-])o2)CC1,"inconclusive [activator, single point]"
4,O=[N+]([O-])c1ccc(COc2ccc(CN3CCCC3)cc2)cc1,"inconclusive [activator, single point]"
5,CCn1c2ccccc2c2cc(NC(=O)COc3ccccc3OC)ccc21,active: 5.8 µM
6,C[C@@H]1CC[C@]2(O[C@H](CCO)C[C@H](O)[C@H]2O)O1,inactive
7,CC(C)c1ccc(NC(=O)NC2CCCCC2)cc1,"inconclusive [activator, single point]"
8,CCOC(=O)c1ccc(NC(=O)Cn2cnc3cc(C)c(C)cc32)cc1,"inconclusive [activator, single point]"
9,COC(=O)C1(Cc2ccc3c(c2)CCC3)Cc2ccc3c(c2C1=O)CCC3 (configuration not stated),active: 9.2 µM
10,O=C(C=C=Nc1ccccc1)C(=O)N=C=Cc1ccccc1,active: 4.61 µM
11,CCOC(=O)C1C(=O)NC(c2ccccc2)=NC1c1ccc(OC)cc1 (configuration not stated),"inconclusive [activator, partial curve, poor fit]"
12,COc1cc(/C=C(\C#N)C(=O)NCC2CCCO2)ccc1O (configuration not stated),inactive
13,CCC(c1nnnn1C(C)(C)C)N1CCN(C(=O)c2ccco2)CC1 (configuration not stated),inactive
14,O=C(CN(C(=O)C1CSC(=O)C1)c1cccc(F)c1)NCc1ccc2c(c1)OCO2 (configuration not stated),inactive
15,OCCNc1nc2ccccc2n1-c1ncnc2sc3c(c12)CCC3,"inconclusive [activator, single point]"
16,COc1ccc(-c2cn[nH]c2-c2ccc(OCC(=O)NN)cc2O)cc1OC,inactive
17,O=C(/C(=C/c1ccc(Cl)cc1)c1nc2ccccc2[nH]1)c1ccccc1,active: 6.51 µM
18,CC(C)(C)N(NC(=O)Nc1ccc(F)cc1)C(=O)c1ccccc1,inactive
19,Cn1cc(CN2CCN(CCO)CC2)c(-c2ccc(Oc3ccccc3)cc2)n1,"inconclusive [activator, single point]"
20,CCOC(=O)C1(Cc2ccccc2)CCN(Cc2nccn2CC)CC1,"inconclusive [activator, full curve, poor fit]"
21,Cn1nccc1C(=O)NC1CCCc2c1cnn2-c1ccc(F)cc1F (configuration not stated),"inconclusive [activator, partial curve]"
22,Cn1cc(C(=O)N/N=C/c2cccc(O)c2)ccc1=O,inactive
23,COC(=O)CCSc1nc(N2CCOCC2)c2c(c1C#N)CC(C)(C)OC2,inactive
24,O=C(CNc1cccc(S(=O)(=O)N2CCCC2)c1)Nc1cccc(C(F)(F)F)c1,inactive

row,SMILES,Potency
1,CCN1CCN(c2ccc(N3CCN(S(=O)(=O)c4cc([N+](=O)[O-])ccc4C)CC3)nn2)CC1,"inconclusive [activator, full curve, poor fit]"
2,CS(=O)(=O)Nc1ccc(C2=NN(C(=O)c3cccc(F)c3)C(c3cccs3)C2)cc1 (configuration not stated),"inconclusive [activator, single point]"
3,COc1ccc(C(=O)N(c2ccccc2)c2nccc3ccccc23)cc1OC,"inconclusive [activator, full curve, poor fit]"
4,CCOC(=O)C1=C(c2ccccc2)NC(=S)NC1c1ccc(C)c([N+](=O)[O-])c1 (configuration not stated),"inconclusive [activator, single point]"
5,CN(CC1CCN(CCc2cccc(C(F)(F)F)c2)CC1)C(=O)c1ccccc1,"inconclusive [activator, single point]"
6,COc1ccccc1CN(C(=O)CCl)C(C(=O)NC1CCCCC1)c1ccncc1 (configuration not stated),inactive
7,Cc1ccc(C)c(-n2c(-c3ccc(Br)cc3)csc2=NC(=O)c2ccccc2F)c1,inactive
8,O=C(CCC(F)(F)F)N1CCCC(CO)(CCc2ccccc2)C1 (configuration not stated),active: 0.651 µM
9,O=C(O)c1ccc(CN2CCCCC2)o1,"inconclusive [activator, partial curve, poor fit]"
10,COc1cccc(/C=C/C(=O)NNC(=O)c2cc(C)oc2C)c1,inactive
11,CS(=O)(=O)c1ccc(S(=O)CC(=O)OCc2ccccc2)c([N+](=O)[O-])c1 (configuration not stated),active: 4.11 µM
12,COc1cc([C@@H]2CC=C(C(=O)O)[C@H](c3ccccc3)N2S(=O)(=O)c2ccc(C)cc2)cc(OC)c1OC,"inconclusive [activator, partial curve, poor fit]"
13,O=C(Nc1ccc(Cl)cn1)C1CCN(c2ncnc3c2nc2n3CCCCC2)CC1,"inconclusive [activator, single point]"
14,CSc1nsc(SC)c1NC(=O)OC1CCCCC1,"inconclusive [activator, full curve, poor fit]"
15,CC[C@H]1c2[nH]c3ccccc3c2C[C@@H]2C(=O)N(c3ccc(F)cc3)C(=O)N21,inactive
16,COc1ccc(C2CC(C(F)(F)F)n3nc(CO)c(Cl)c3N2)cc1OC (configuration not stated),"inconclusive [activator, single point]"
17,CCC1CCCCN1C(=O)c1ccc(OC2CCN(C(=O)COC)CC2)cc1 (configuration not stated),"inconclusive [activator, single point]"
18,CCOC(=O)c1c(C(=O)OCC)c(C)n(CCc2ccccc2)c1C,"inconclusive [activator, single point]"
19,CCOc1ccc(S(=O)(=O)Nc2nccs2)cc1,"inconclusive [activator, full curve, poor fit]"
20,COc1ccc(CNC(=O)C2CC(C)=C(C)CC2C(=O)O)cc1 (configuration not stated),inactive
21,C/C(=N\NC(=O)c1ccc(Br)cc1)C1C(=O)c2ccccc2C1=O,"inconclusive [activator, full curve, poor fit]"
22,COc1ccc(-c2cn[nH]c2-c2ccc(OC)cc2)cc1,"inconclusive [activator, single point]"
23,Cc1cccc2c3nc4ccccc4nc3n(C)c12,"inconclusive [activator, single point]"
24,Cc1noc(C)c1COc1ccc(C(=O)N2CCN(S(=O)(=O)c3cccc(F)c3)CC2)cc1,"inconclusive [activator, partial curve, poor fit]"

row,SMILES,Potency
1,O=C(Nc1ccccc1Br)c1cc[n+]([O-])cc1,"inconclusive [activator, single point]"
2,COc1ccccc1N1CCN(c2nc3c(C)cccn3c(=O)c2C=O)CC1,inactive
3,COc1cccc2cc(-c3cn4cccc(C)c4n3)c(=O)oc12,"inconclusive [activator, full curve, poor fit]"
4,O=Cc1ccc(N2CCCC2)c(F)c1,"inconclusive [activator, single point]"
5,Cc1c(C=O)c2ccccc2n1CC(=O)N1CCc2ccccc2C1,"inconclusive [activator, partial curve, poor fit]"
6,N#Cc1c(N)nc(SCc2ccncc2)c(C#N)c1-c1cccs1,"inconclusive [activator, partial curve, poor fit]"
7,COc1cc(CO)c(OC)c([N+](=O)[O-])c1,"inconclusive [activator, full curve, poor fit]"
8,CC(C)(C)C1CCC(=O)N(CCSc2ccccc2)CC1 (configuration not stated),"inconclusive [activator, single point]"
9,Cc1ccc2oc(C(=O)NCCCN3CCOCC3)c(C)c2c1,"inconclusive [activator, partial curve, poor fit]"
10,COc1ccc(NC(=O)CSc2nc3ccccc3c(=O)n2CCC(=O)N2CCCCC2)cc1,inactive
11,COC(=O)c1c(NC(=O)c2ccco2)sc(C)c1C,"inconclusive [activator, single point]"
12,Cc1c(Cl)cccc1NC(=O)CC1Oc2ccccc2NC1=O (configuration not stated),inactive
13,CCN(C(=O)c1cc2c(=O)n3ccccc3nc2n1C)C1CCCCC1,"inconclusive [activator, partial curve, poor fit]"
14,O=C(OCc1nnc(-c2ccccc2)o1)c1ccccc1,inactive
15,COc1cccc(/C=N/n2c(C3CCCCC3)n[nH]c2=S)c1,"inconclusive [activator, partial curve, poor fit]"
16,Cc1cc(C)cc(NC(=O)C(Sc2ncnc3ccccc23)c2ccccc2)c1 (configuration not stated),inactive
17,Cc1cccc(N/N=C/c2ccc(C)s2)c1,inactive
18,CCCN(CC(=O)Nc1ccccc1C)C(=O)c1ccc(N2CCCC(C)C2)c([N+](=O)[O-])c1 (configuration not stated),"inconclusive [activator, single point]"
19,O=C(c1[nH]ncc1-c1ccccc1)C1CO1 (configuration not stated),"inconclusive [activator, single point]"
20,Cc1ccc2nsnc2c1S(=O)(=O)N(Cc1ccco1)Cc1cc2cccc(C)c2[nH]c1=O,"inconclusive [activator, partial curve]"
21,Cn1c(SCC(=O)N2CCOCC2)nc2c(c1=O)SCC2,inactive
22,CCC(C(=O)NC1CCCCCC1)c1ccccc1 (configuration not stated),inactive
23,Cc1cnc(NC(=O)CCNC(=O)c2ccccc2Cl)s1,inactive
24,COc1cc(/C=N/NC(=O)c2cc(-c3cccc(Br)c3)nc3ccccc23)cc(OC)c1O,"inconclusive [activator, partial curve]"
